Source: US20240293367A1, “METHODS OF TREATING DISORDERS WITH A […]” (Cybin IRL Limited, priority 2023, published 2024)

Test: Safety and tolerability (adverse events) in the Phase I/IIa study
Conditions: all cohorts

[2H]C([2H])([2H])N(C([2H])([2H])[2H])C([2H])([2H])C([2H])([2H])c1c[nH]c2cccc(O)c12 [psilocin-d10, 3-(2-(bis(methyl-d3)amino)ethyl-1,1,2,2-d4)-1H-indol-4-ol]
severity of adverse events / serious adverse events: mild or moderate in severity, with no serious adverse events
